# PubChem BioAssay AID1347073 (National Center for Advancing Translational Sciences (NCATS), 2019)
# About 200 (0.44%) of roughly 45,000 compounds were called active. Not shown: some 7% with an inconclusive outcome. Calls come from the whole dose curve; as a rule, active = well fitted activation curve with a large enough effect; inconclusive = small, poorly fitted or top-dose-only effect; inactive = no such curve, though single readings can be large or run the other way. Some of the results follow.
# Experiment: qHTS of TDP-43 Inhibitors: NCGC Sytravon Library Screen; note: 0% is about no effect; nearly all actives have a fitted effect of over 55% in size
# Conditions: yeast TDP-43 toxicity rescue, BacTiter-Glo growth, 24 h; series mostly up to 46.1 µM; growth rescue (activation): at the top concentration
# How it was run: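 TDP-43-expressing yeast, pregrown in raffinose, seeded at OD600 0.02 in galactose medium with compound for 24 hr at 30 deg C. Growth read by BacTiter-Glo luminescence, so rescue of toxicity appears as activation.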
row,SMILES,growth rescue (activation)
1,Cc1c(C#N)c2ccccc2n1C,inactive: 7.94%
2,COc1ccc(OCc2nnc(SCC(=O)N3CCCCC3)o2)cc1,inactive: 16.4%
3,COc1ccc(Br)c(C(=O)NCCC(C)C)c1,inactive: -7.31%
4,COc1cc(C)c(NC(=O)COc2ccc3c(c2)OCO3)cc1C,inactive: -0.759%
5,Cc1ccc(S(=O)(=O)N2CCC[C@H]2C(=O)NC2CCCCC2)cc1,inactive: 24.3%
6,Cc1cc(NC(=O)c2ccc(Cl)cc2Cl)n(CCC#N)n1,inactive: 14.8%
7,CN(C)S(=O)(=O)c1ccc(Cl)c(NC(=O)CNC2(C)CCS(=O)(=O)C2)c1 (stereo not drawn),inactive: 7.81%
8,COc1ccc(C(=O)Nc2ccc(NC(=O)C3CC3)cn2)cc1,inactive: 17.3%
9,CSCC[C@H](NC(=O)OC(C)(C)C)C(=O)N/N=C/c1cccc2cccnc12,inactive: -11.4%
10,Cc1ccc(CNC(=O)c2cc(C)nn2-c2ccccc2)cc1,inactive: 24%
11,N#C/C(=C(/O)COC(=O)COc1ccc(Cl)cc1)c1nc2ccccc2[nH]1,inactive: -1.2%
12,CC(=O)/C(N=Nc1ccc2c(c1)OCCO2)=C(\C)O,inactive: 16.1%
13,CC(=O)Nc1nc(-c2ccc3c(c2)CCN3C(=O)C2CC2)c(C)s1,inactive: -0.621%
14,CCOC(=O)C1CCCN(C(=O)COc2ccc(S(=O)(=O)N3CCOCC3)cc2)C1 (stereo not drawn),inactive: 17.3%
15,CC1(C)CC(=O)/C(=C(/O)Cc2ccccc2)C(=NCCc2ccccc2)C1,inactive: 26.6%
16,CC(=O)Cc1cc(O)c2ccccc2c1OC(=O)c1ccccc1,inactive: 15%
17,COc1ccc(NC(=O)N2CCCC(C(=O)NCc3ccccc3F)C2)cc1 (stereo not drawn),inactive: 4.83%
18,COc1ccc(S(=O)(=O)N2CCCC(C(=O)NC3CCCC3)C2)cc1OC (stereo not drawn),inactive: 1.89%
19,O=C(COC(=O)/C=C/c1cccs1)Nc1nc(-c2ccccc2)cs1,inactive: -13.7%
20,CC1CCCC(NC(=O)COC(=O)/C=C/c2ccc(S(=O)(=O)N3CCOCC3)cc2)C1C (stereo not drawn),inactive: 32.9%
21,Cc1cc(C)n2nc(C(=O)OCC(=O)Nc3ccc(C)c(S(=O)(=O)N4CCOCC4)c3)nc2n1,inactive: -6.39%
22,COc1ccc(CCNC(=O)CSc2cccc3cccnc23)cc1OC,inactive: -7.14%
23,CCn1c2ccc(F)cc2c2nc3ccccc3nc21,inactive: 6.65%

row,SMILES,growth rescue (activation)
1,c1ccc(CNc2nc(-c3cccnc3)cs2)cc1,inactive: 18.1%
2,O=C(Nc1cccc(S(=O)(=O)N2CCOCC2)c1)c1cn(-c2ccccc2)nc1-c1ccccc1,inactive: -4.52%
3,CCOc1ccc2nc(SCc3ccc(OC)cc3)sc2c1,inactive: 9.11%
4,Cc1ccc(/C=N/NC(=O)CSc2nc3ccccc3o2)cc1,inactive: 7.47%
5,Cc1nnc(NC(=O)Cn2nc(C)c3ccccc3c2=O)s1,inactive: 7.94%
6,COCCNc1nc(-c2ccc(OC)cc2)c(-c2ccc(OC)cc2)s1,inactive: 12.3%
7,COc1ccc(S(=O)(=O)N(CC(=O)NCc2ccncc2)c2ccc(C)cc2)cc1OC,inactive: 4.86%
8,CNC(=S)N1N=C(c2ccc(Br)cc2)CC1c1ccc(N(C)C)cc1 (stereo not drawn),inactive: 15.9%
9,Cc1c(C(=O)O)cccc1N1C(=O)Nc2ccccc2N1O,inactive: 29.8%
10,CN1N=C(C(=O)N2CCN(c3ccc([N+](=O)[O-])cc3)CC2)CCC1=O,inactive: 20.1%
11,COc1ccc(C(CNc2ccc(S(=O)(=O)N3CCN(C)CC3)cc2[N+](=O)[O-])N(C)C)cc1 (stereo not drawn),inactive: 22.1%
12,COc1cc(NC(=S)NC(=O)CCc2ccccc2)cc(OC)c1,inactive: -13.3%
13,COc1ccc(NS(=O)(=O)c2cccc(C(=O)NN=Cc3ccc(OC)c(O)c3)c2)cc1,inactive: 8.62%
14,COc1ccc(-c2ccc(C(=O)Nc3cccc(N(C)C)c3)c3occc23)c(C)c1,inactive: 29.6%
15,c1ccc(Nc2nc(-c3ccncc3)cs2)nc1,inactive: 7.93%
16,Cc1ccc(C(O)c2ncc(-c3ccc(Cl)cc3)[nH]2)cc1F (stereo not drawn),inactive: 3.55%
17,O=[N+]([O-])c1ccc(C(O)CN2CCN(c3ccccc3)CC2)cc1 (stereo not drawn),inactive: 6.17%
18,CCOc1ccc(-n2c(SCC(N)=O)nnc2-c2ccco2)cc1,inactive: 1.21%
19,CN(Cc1ccccc1)C(=O)c1cc2cc(F)ccc2[nH]1,inactive: 8.35%
20,Cc1ccccc1-c1cnc(C(O)c2cc(Cl)cc(Cl)c2)[nH]1 (stereo not drawn),inactive: 17.3%
21,CCN(CC)P(=O)(c1ccccc1)c1c(C)nc2ccccn12 (stereo not drawn),inactive: 7.43%
22,Cc1ccc2nc(-c3ccc(NC(=O)CCN4C(=O)c5ccccc5C4=O)cc3)sc2c1,inactive: -9.48%
23,Cc1ccc(OCC(=O)NCCCNC(=O)c2ccncc2)cc1C,inactive: 4.59%

row,SMILES,growth rescue (activation)
1,O=C(CCn1cnc2ccccc21)N/N=C/C=C/c1ccccc1,inactive: 13.2%
2,Cc1ccn2c(Nc3ccccc3)c(-c3ccccn3)nc2c1,inactive: 10.5%
3,COC(=O)CCCCCCCCCC[N+]1(C)CCCCC1,inactive: -13%
4,CC(=O)Nc1ccc(-c2ccnc3c2CC(C)(C(=O)NCCc2ccccc2)O3)cc1 (stereo not drawn),inactive: 3.43%
5,Cc1ccc(C(=O)N/N=C/c2ccc(-c3ccccc3[N+](=O)[O-])o2)cn1,inactive: 10.7%
6,O=C(CSC1CCCCC1)Nc1nccs1,inactive: 29.7%
7,CCOC(=O)C1CCCCN1Cc1ccc(OC)c(OC)c1 (stereo not drawn),inactive: 1.66%
8,O=C(NCCCN1CCN(c2cccc(Cl)c2)CC1)c1cccc(N2CCCC2=O)c1,inactive: -7.5%
9,Cc1ccc(S(=O)(=O)Nc2nc3ccccc3nc2NCC2CCCO2)cc1 (stereo not drawn),inactive: 21.7%
10,COCCNC(=O)CN(C(=O)CCC(=O)Nc1nccs1)c1ccc2c(c1)OCO2,inactive: 0.753%
11,Cc1cc(NC(=O)COC(=O)c2cc(S(=O)(=O)N3CCOCC3)ccc2N2CCCCC2)no1,inactive: 13.2%
12,CC1(C(=O)NS(=O)(=O)c2ccc(F)cc2F)CCN1C(=O)c1cccc(F)c1 (stereo not drawn),inactive: -5.7%
13,COc1ccc(N(C(=O)c2snc(C(N)=O)c2N)C(C(=O)NC2CCCC2)c2ccc(OC)c(OC)c2)cc1 (stereo not drawn),inactive: -2.59%
14,O=C(O)Cc1sc(-c2cccnc2)nc1-c1ccc(Br)cc1,inactive: -0.36%
15,CCCOc1ccc(CNC(=O)c2ccc3c(c2)N(Cc2ccccc2)CCS3)cc1,inactive: -2.63%
16,COc1ccc(-c2cc(=O)[nH]c(=S)[nH]2)cc1,inactive: 16.7%
17,CC1(C(=O)NS(=O)(=O)c2ccccc2)CCN1C(=O)Cc1cccc2ccccc12 (stereo not drawn),inactive: -6.56%
18,Cc1ccc(S(=O)(=O)NC(=O)C2(C)CCN2C(=O)Cc2ccc(-c3ccccc3)cc2)cc1 (stereo not drawn),inactive: 0.75%
19,CC(NC(=O)CCC(=O)N1CCN(S(=O)(=O)c2ccc(Cl)cc2)CC1)c1ccccc1 (stereo not drawn),inactive: -40.3%
20,O=C(O)c1cccc(S(=O)(=O)Nc2ccc3[nH]c(=O)[nH]c3c2)c1,inactive: -35.2%
21,CCC(CC)C(=O)NN(C(=O)c1ccncc1)C1CC(=O)N(c2ccccc2)C1=O (stereo not drawn),inactive: 8.35%
22,Cc1ccc(-n2c(SCC(=O)Nc3ccc4cn[nH]c4c3)nnc2-c2ccco2)cc1,inactive: -13%
